Source: PubChem BioAssay AID1240 (Sanford-Burnham Center for Chemical Genomics, 2008)
Out of some 50,000 compounds screened, about 800 (1.6%) showed an effect of 50% or more. This is one part of the list.

molecular target: Bcl-2-like protein 10 (Homo sapiens) (UniProt Q9HD36); assay: Phenotype converters, Bcl-B/TR3 peptide binding displacement, primary biochemical FP (AID 1240); settings: GST-Bcl-B / FITC-TR3 peptide fluorescence polarization; stronger effect = higher value; compound at 3.75 mg/L;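 further: 0% = Bcl-B with tracer peptide and DMSO and 100% = tracer peptide lacking Bcl-B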
Chain of UniProt Q9HD36 (Q9HD36 whole entry, looked up): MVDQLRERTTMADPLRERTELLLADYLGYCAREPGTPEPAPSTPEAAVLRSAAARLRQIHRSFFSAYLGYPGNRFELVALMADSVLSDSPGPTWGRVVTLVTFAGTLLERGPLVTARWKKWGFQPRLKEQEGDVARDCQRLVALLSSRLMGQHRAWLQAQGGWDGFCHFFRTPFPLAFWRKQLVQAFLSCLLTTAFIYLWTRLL

Compound | displacement [%]
CCOC(=O)c1c(C)oc2ccc(OC(=O)c3ccccc3C)cc12 | 8.3
Cc1ccc(/C=N/NC(=O)C2(C)CC2(Br)Br)cc1 (stereo not given) | 2
COCCCNC(=O)C(=O)NCCc1ccc(OC)c(OC)c1 | 11.3
Cc1ccc(C(=O)O)cc1N1C(=O)c2ccc(Oc3ccc([N+](=O)[O-])cc3)cc2C1=O | 0.7
O=C(/C=C/c1ccccc1)NC(=S)Nc1ccc(NC(=O)c2cccc(Cl)c2)cc1 | 12.6
C=CCN1C(=O)/C(=C\c2ccccc2C)C(=O)NC1=S | -4
C=CCc1ccccc1OCCOc1ccc(/C=C2/SC(=S)N(C)C2=O)cc1OC | 12.9
Cc1ccc(/C=N/Nc2ccccn2)cc1 | -0.6
COc1ccc(-c2nnc(NC(=O)c3ccccc3C)s2)cc1OC | 44.2
N#CSC(CS(=O)(=O)c1ccccc1)c1ccccc1 (stereo not given) | 0.9
CCN(CC)c1ccc(/C=N/Nc2cc(N3CCOCC3)nc(N3CCOCC3)n2)cc1 | -3.4
O=C(O/N=C(/c1ccccc1)c1ccncc1)c1ccc(Cl)cc1Cl | -4.1
Cc1ccc(NC(=O)C(=O)NCCN2CCOCC2)cc1 | 8.9
C(=N\Nc1nn[nH]n1)/c1ccc2c(c1)OCO2 | 10.2
Cc1nc(Nc2ccccc2)c(C(F)(F)F)c(C(F)(F)C(F)(F)F)n1 | 13.1
C=CCc1cc(/C=C2/C(=O)NC(=O)N(c3cccc(C)c3)C2=O)cc(OC)c1O | 1.1
Cc1c(Cl)cccc1N=C1NC(=O)/C(=C/c2ccc(-c3ccccc3C(=O)O)o2)S1 | -124
CC(C)COc1ccc(C(=O)Nc2cccc(C(F)(F)F)c2)cc1 | 4.9
Clc1ccc(OCCOCCN2CCCC2)c2ccccc12 | 6.7
Clc1ccccc1-c1noc(C23CC4CC(CC(C4)C2)C3)n1 | -10.2
COc1ccc(/C=C/C(=O)Nc2ccc(OC)c(OC)c2)cc1 | 4.9
COC(=O)c1cc(-c2cccc(N)c2)nc2ccccc12 | -13.3
Fc1ccc(-c2nnn(Cc3nn[nH]n3)n2)cc1 | -13.6
COc1cc(/C=C2/SC(=S)NC2=O)cc(Cl)c1OCc1cccc2ccccc12 | 1.5
COc1ccccc1/C=N/Nc1nc(N2CCOCC2)nc(N2CCOCC2)n1 | 6.6
O=C1CCCC(O)=C1C=NCCCn1ccnc1 | 0.1
O=[N+]([O-])c1cc(C2Nc3cccc4cccc(c34)N2)ccc1Cl | 14.4
O=[N+]([O-])c1ccccc1OCCOc1ncnc2ccccc12 | 8.3

Compound | displacement [%]
Cc1nc2ccccc2n1S(=O)(=O)c1ccc(F)cc1 | 11.2
O=C1NC(=O)N(c2ccc(Cl)cc2)C(=O)/C1=C/c1cccs1 | 15.5
O=C1OCC(Cn2c3ccccc3c3ccccc32)O1 (stereo not given) | -2.2
CCOC(=O)c1[nH]cnc1C(=O)Nc1ccc(Br)cc1 | 19.1
O=C(Nc1ccccc1-c1ccccc1)c1ccc(F)cc1 | 7.9
O=C(/C=C/c1ccc(-c2ccc(Cl)cc2)o1)c1ccccc1 | 41.8
O=C(c1nn2c(c1Br)NC(c1ccccc1)CC2C(F)(F)F)N1CCOCC1 (stereo not given) | 6.8
O=C(CN(c1cccc(Cl)c1)S(=O)(=O)c1ccccc1)NCCSc1nc2ccccc2s1 | 13.1
C=CCN(CC=C)C(=O)c1ccccc1NC(=O)c1ccccc1C | -10.6
Cn1ncc(Cl)c1C(=O)N(C(=O)c1c(Cl)cnn1C)c1ccccc1C(F)(F)F | -3.6
O=C(O)[C@@H]1C2CCCCC2=C2CCCCC2[C@@H]1C(=O)O (stereo not given in full) | 18.6
N#C/C(=C\c1ccc2c(c1)OCO2)C(=O)NCc1ccco1 | -15.4
CCOC(=O)CN1C(=O)C(O)(CC(=O)c2cccs2)c2ccccc21 (stereo not given) | -5.7
CC1(C)CC(=O)C2=C(C1)Nc1ccc3ccccc3c1C2c1ccccc1F (stereo not given) | -12
COc1cc2c(cc1OC)C(c1ccc(O)cc1)N(C1CC(=O)N(c3ccccc3)C1=O)CC2 (stereo not given) | -5.3
CC(C)N1CCC(=NNC(=O)C(O)c2ccccc2)CC1 (stereo not given) | -4
COc1ccc(C2=C/C(=C/c3ccc(OC)c(Br)c3)C(=O)O2)cc1 | 11
COc1ccc(N(CC(=O)Nc2cccc(C(F)(F)F)c2)S(C)(=O)=O)c(OC)c1 | 9.8
O=C(O)c1cccc(NC(=O)c2cccc(N3C(=O)c4ccc(C(=O)Nc5cccc(C(=O)O)c5)cc4C3=O)c2)c1 | -0.9
O=c1cc(C(F)(F)F)c2ccc(OCc3ccc([N+](=O)[O-])cc3)cc2o1 | 3.4
O=C(c1ccc(Cl)cc1)N(Cc1ccccc1)c1cccc([N+](=O)[O-])c1 | 7.2
C(=N\Nc1nc(N2CCOCC2)nc(N2CCOCC2)n1)/c1ccc2ccccc2c1 | 1.3
CN1CCN(Cn2c(O)c(N=NC(=O)c3ccccc3Br)c3ccccc32)CC1 | 0.3
Nc1ccc2nc(SCc3ccc(F)cc3)sc2c1 | 2.7
CC(=O)Nc1ccccc1NC(=O)c1ccc(C)c([N+](=O)[O-])c1 | 0.9
O=C(NCc1cccnc1)c1nn2c(C(F)(F)F)cc(-c3cccs3)nc2c1Cl | -5.6
COc1cc(/C=C2\SC(=S)N(C)C2=O)ccc1OC(=O)c1cccc(C)c1 | 6.9
